Data published in PubChem BioAssay AID1508624 (National Center for Advancing Translational Sciences (NCATS), 2021).
The campaign covered roughly 48,000 compounds. About 120 (0.25%) were called active. Inconclusive results (about 4%) are left out. The call rests on the fitted dose curve; in most records, active means well fitted activation curve with a large enough effect; inconclusive means small, poorly fitted or top-dose-only effect, or another doubt; inactive means no such curve, though single readings can be large or run the other way. The list shows a part of the results.

Assay: Primary qHTS for Identification of Small Molecule Activators of Huntingtin-Antisense Promoter Activity; further: nearly all actives have a fitted effect of over 55% in size
Settings: HEK293 HTT-AS promoter firefly luciferase reporter, 24 h; series mostly up to 57.5 µM; activity change, positive = activation: at the top concentration
Method in brief: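 Firefly luciferase signal from promoter-reporter HEK293 cells was scaled between vehicle (0%) and zero RLU (-100%). Compounds were tested at final concentrations of up to 57.5 uM over 24 h at 37 degrees C. PTC124 at 50 uM final served as control inhibitor.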

Row | Compound | activity change, positive = activation
1 | COc1ccc(CNC(=O)CCc2c(C)nc3c(c(C)nn3-c3ccccc3)c2C)cc1 | inactive: -12.5%
2 | CCOC(=O)c1c(C)n(-c2ccc(OC)cc2)c2ccc(OC(=O)COc3ccccc3)cc12 | inactive: -29.6%
3 | Cc1ccc(-n2ncc3c(Nc4cccc(Cl)c4)ncnc32)c(C)c1 | inactive: -1.92%
4 | CN1C[C@H]2c3ccccc3Oc3ccc(Cl)cc3[C@@H]2C1 | inactive
5 | O=C(Cn1nnnc1-c1ccccc1F)Nc1ccc(OC(F)(F)F)cc1 | inactive: -9.23%
6 | COc1cc(NC(=O)C2=CC(c3ccc(F)cc3)=NS(=O)(=O)N2C)cc(OC)c1OC | inactive: -25.8%
7 | c1ccc([C@H]2CN3CCSC3=N2)cc1 | inactive: -6.84%
8 | CC(C)c1nnc(N2C(=O)c3oc4ccccc4c(=O)c3C2c2ccccc2F)s1 (configuration not stated) | inactive: 4.56% [at 11.5 µM, percent change from vehicle, -100% = no light]
9 | CCN(CC)c1cc(C)c2cc(NC(=O)/C=C/c3cc(OC)c(OC)c(OC)c3)ccc2n1 | inactive: -8.42%
10 | CN(C)CC/C=C1\c2ccccc2Sc2ccc(Cl)cc21 | inactive: -18.5%
11 | O=C(CSc1nccn1Cc1ccc(F)cc1)Nc1nc2ccccc2s1 | inactive: -28.4%
12 | CCN(Cc1ccccc1)C(=O)C1CCN(S(=O)(=O)c2ccc3c(c2)CCCN3C(C)=O)CC1 | inactive: -24.3%
13 | COc1ccc(Cl)cc1NC(=O)c1cn(C2CCCC2)c(=O)c2c1c1ccccc1n2C | inactive: -3.79%
14 | Cc1cccc(N(CC(=O)Nc2ccccc2C(F)(F)F)S(=O)(=O)c2ccccc2)c1C | inactive: -24.7%
15 | COc1ccc(OC)c(C2CC(=O)Oc3c2c(=O)n(C)c2ccccc32)c1 (configuration not stated) | inactive: -12.3%
16 | O=C(NCC(c1cccs1)S(=O)(=O)c1ccccc1)c1ccc(C(F)(F)F)cc1 (configuration not stated) | inactive: -29.3%
17 | COCCCNC(=O)CSc1nc2c(sc3ccccc32)c(=O)n1CCc1ccc(OC)c(OC)c1 | inactive: -7.83%
18 | COc1ccccc1C(=O)NC1(C(F)(F)F)C(=O)Nc2c1c(=O)[nH]c(=O)n2-c1ccc(F)cc1 (configuration not stated) | inactive: -7.37%
19 | Cc1cccc(Cn2c(-c3cccc(Br)c3)nc3ccccc32)c1 | inactive: -30.4%
20 | CN(C)CCNC(=O)Cn1ccc2cc(S(=O)(=O)N3CCCCCC3)ccc21 | inactive: -7.55%
21 | Cc1cc(Cl)ccc1OCC(=O)N(Cc1ccco1)Cc1ccccc1F | inactive: -36.4%
22 | COc1ccc(CNC(=O)CSc2ncc3c(n2)-c2ccc(Cl)cc2N(Cc2ccccc2)S3(=O)=O)cc1 | inactive: -1.23%
23 | COc1ccc(-c2noc(-c3ccc(N4CCCC4)c([N+](=O)[O-])c3)n2)cc1OC | inactive: -5.54%
24 | CCC(=O)O[C@]1(C(=O)CCl)[C@@H](C)C[C@H]2[C@@H]3CCC4=CC(=O)C=C[C@]4(C)[C@@]3(F)[C@@H](O)C[C@@]21C | inactive

Row | Compound | activity change, positive = activation
25 | CCc1ccc(-n2nc(C)c3c(C(=O)N4CCN(c5ccccc5)CC4)cc(C)nc32)cc1 | inactive: -14.9%
26 | CCOc1ccc(CNC(=O)C2CCCN(c3nnc(C)c4c(C)n(-c5ccccc5)nc34)C2)cc1 (configuration not stated) | inactive: -19.6%
27 | O=C1C[C@@H](c2ccc(O)cc2)Oc2cc(O)cc(O)c21 | inactive: 20.3%
28 | CCOc1cc(C2NC(=O)c3c(sc4c3CCN(C)C4)N2)ccc1OC(=O)c1ccc(Br)cc1 (configuration not stated) | inactive: -10.6%
29 | Cc1nn2c(C)c(C(=O)NC(C)c3ccccc3)cnc2c1-c1ccc(F)cc1 (configuration not stated) | inactive: -6.17%
30 | COc1ccc(NC(=O)c2ccco2)cc1NC(=O)C(C)(C)Oc1ccc(Cl)cc1 | inactive: -14.6%
31 | CCOc1ccc(NC(=O)Cn2cnc3sc(C)c(S(=O)(=O)N4CCN(c5ccccc5OC)CC4)c3c2=O)cc1 | inactive: -7.6%
32 | COc1ccc(C)cc1NC(=O)c1cc2c(=O)n3cccc(C)c3nc2s1 | inactive: -5.17%
33 | CCC(=O)N1CCCc2cc(S(=O)(=O)N3CCC(C(=O)NCc4ccc(F)cc4)CC3)ccc21 | inactive: -15.6%
34 | Cc1cccc(C)c1-n1ncc(C(=O)O)c1C1CCN(C(=O)OC(C)(C)C)CC1 | inactive: -1.04%
35 | O=C(COc1ccccc1)Nc1nnc(S(=O)(=O)Nc2ccccc2)s1 | inactive: -9.68%
36 | Cc1ccc(Cl)cc1N1CCN(S(=O)(=O)c2cn(C)c(C)n2)CC1 | inactive: -23.2%
37 | CC1CCCCN1CCCNC(=O)CN1C(=O)c2cccnc2Oc2ccc(Cl)cc21 (configuration not stated) | inactive: -3.63%
38 | CCOc1ccccc1C1C(C(=O)Nc2ccccc2)=C(C)Nc2nc(SCC(=O)c3ccc(C)cc3)nn21 (configuration not stated) | inactive: -16.7%
39 | CN(C(=O)CSc1nc(-c2ccccc2)no1)c1ccc(F)cc1 | inactive: -0.24%
40 | COc1ccc(C(=O)c2sc3nc4c(c(C(F)(F)F)c3c2N)CN(C(C)=O)CC4)cc1OC | inactive: -36.7%
41 | CCOc1ccccc1NC(=O)Nc1nnc(N2CCCC(C)C2)s1 (configuration not stated) | inactive: -19.8%
42 | O=C1OCCN1/N=C/c1ccc([N+](=O)[O-])o1 | inactive: 2.77%
43 | O=C(c1ccc(Cl)cc1)N1CCN(CCc2ccncc2)CC1 | inactive: -2.62%
44 | Cc1ccc(-c2nnc(Nc3cccc(Cl)c3)c3ccccc23)cc1S(=O)(=O)N1CCN(C)CC1 | inactive: -7.03%
45 | COc1ccc(C(=O)NCc2ccc3c(c2)CCN3C(C)=O)c(OC)c1 | inactive: -17.8%
46 | Cc1ccccc1NC(=O)C1CCN(S(=O)(=O)c2c(C)noc2/C=C/c2ccco2)CC1 | inactive: -11.5%
47 | CCC(=O)N1CCc2cc(CNC(=O)c3cccc(N(C)C)c3)ccc21 | inactive: -2.17%
